Source: PubChem BioAssay AID504832 (National Center for Advancing Translational Sciences (NCATS), 2011)
Screen size: about 310,000 compounds; about 18,000 (5.8%) were called active. Inconclusive means that the source gave no clear call. Such entries were picked first, then a sample of the others. Calls come from the whole dose curve; as a rule, active = well fitted inhibition curve with a large enough effect; inconclusive = small, poorly fitted or top-dose-only effect, or another doubt; inactive = no such curve, though single readings can be large or run the other way. No potency is given beside an inconclusive call; the fits are too rough.

test: Primary qHTS for delayed death inhibitors of the malarial parasite plastid, 48 hour incubation; conditions: P. falciparum luciferase growth in erythrocytes; series mostly up to 28.7 µM; activity change, negative = inhibition: at the top concentration
Outline: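 Compounds are pin-transferred into medium, infected erythrocytes (2% hematocrit, 0.1% parasitemia final) are added, and plates sit one parasite generation at 37 C in 5% CO2. Detection reagent is then added and luminescence measured.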
% is set by controls: 0 for no effect and ±100 for the full control effect; potency is the fitted concentration of half-maximal effect; tags give direction and shape of the fitted curve.

SMILES | Potency | activity change, negative = inhibition
COCCNc1oc(/C=C/c2ccccc2OC)nc1S(=O)(=O)c1ccccc1 | active: 9.28 µM | –
O=C(O)C1=C[C@H](C2CC2)C[C@H](OCCCCO)O1 | – | inactive: 68.5%
Cc1ccc(CSC2=Nc3ccccc3C3=NC(CCC(=O)NCc4ccco4)C(=O)N23)cc1 (centres undefined) | inconclusive [inhibitor, partial curve] | –
CCn1c(CC(=O)Nc2ccccc2F)nnc1SCC(=O)Nc1nncs1 | – | inactive: 13.5%
Cn1c(CNC(=O)CNC(=O)Cc2ccc(Cl)cc2)cc(=O)n(C)c1=O | – | inactive: -23.3%
O=C(CSc1nnc(CNc2ccc(F)cc2)o1)N1c2ccccc2Sc2ccccc21 | inconclusive [inhibitor, partial curve, poor fit] | –
CC(=O)Nc1ccc(NC(=O)CC(c2ccccc2)c2ccccc2)cc1 | active: 11.7 µM | –
CCOc1ccc(N=C(NC#N)SCC)cc1 | inconclusive [inhibitor, single point] | –
COCCN(C(=O)c1cc2c(s1)CCCCC2)c1c(N)n(Cc2ccccc2)c(=O)[nH]c1=O | – | inactive: -3.87%
CC(C)(C)OC(=O)NCc1ccc(CNC(=O)c2nc[nH]c2C(=O)N2CCN(c3ccccc3)CC2)cc1 | active: 13.1 µM | –
Cc1ccc(NC(=O)CNC2CCCCC2)cc1Cl | inconclusive [inhibitor, partial curve, poor fit] | –
Cc1ccc(C(=O)OCC(=O)Nc2ccccc2C(F)(F)F)cc1S(=O)(=O)N1CCCCC1 | inconclusive [inhibitor, single point] | –
N/C(=N\OC(=O)C(c1ccccc1)c1ccccc1)c1cccnc1 | inconclusive [inhibitor, partial curve, poor fit] | –
CCOC(CCNC(=O)c1cn(CC(C)C)c(=O)c2c1c1ccccc1n2C)OCC | – | inactive: -16.7%
O=C(Nc1ccccc1N1CCCC1)c1ccc(Cl)c(S(=O)(=O)N2CCOCC2)c1 | active: 11.7 µM | –
CC(=O)c1cccc(NC(=S)NC(=O)c2cncc(Br)c2)c1 | – | inactive: 57.3%
COc1ccc(/C=C(/NC(=O)c2cccs2)C(=O)Nc2ccc(C)cc2)cc1OC | inconclusive [inhibitor, partial curve] | –
O=C(COc1ccccc1)N1CCN(c2nnc(-c3ccccc3)c3ccccc23)CC1 | inconclusive [inhibitor, single point] | –
CN1C(=O)[C@@H](NC(=O)c2cc3ccccc3[nH]2)N=C(c2ccccc2)c2ccccc21 | active: 15.1 µM | –
C=CCNC(=O)c1ccccc1NC(=O)C1CCN(S(=O)(=O)c2ccc(SC)cc2)CC1 | inconclusive [inhibitor, single point] | –
C=CCn1c(SCC(=O)c2[nH]c(C)c(C(=O)OCC)c2C)nc2scc(-c3ccc(OC)c(OC)c3)c2c1=O | inconclusive [inhibitor, full curve] | –
COc1cc(OC)cc(C(=O)NC(=S)NNC(=O)[C@H]2C[C@@H]2c2ccccc2)c1 | inconclusive [inhibitor, single point] | –
O=C(CSc1nnc(-c2cnccn2)n1Cc1ccco1)Nc1ccc(Br)cc1 | inconclusive [inhibitor, single point] | –

SMILES | Potency | activity change, negative = inhibition
CC(=O)Oc1ccc(N(C(C)=O)S(=O)(=O)c2ccc(Cl)cc2)c2ccccc12 | inconclusive [inhibitor, single point] | –
CC(C)N(Cc1ccccc1)C(=O)COC(=O)c1ccc(O)cc1 | inconclusive [inhibitor, single point] | –
Nc1nc(-c2ccccc2)[nH]c(=O)c1N=O | – | inactive: -0.596%
CCCOc1ccc(Cn2c(C)nc([N+](=O)[O-])c2SCC(O)COC)cc1[N+](=O)[O-] (centres undefined) | inconclusive [inhibitor, partial curve, poor fit] | –
O=C(NCc1nc2ccccc2[nH]1)C1=C[C@H](c2ccccc2)C[C@H](OCc2ccc(CO)cc2)O1 | active: 1.04 µM | –
C/C(=N/NC(=O)CNC(=O)/C=C/c1ccccc1)c1ccco1 | inconclusive [inhibitor, single point] | –
O=c1c(-c2nc3ccccc3s2)cccn1Cc1ccc(Cl)cc1 | inconclusive [inhibitor, full curve, poor fit] | –
COc1ccc(NC(=O)/C(N=Nc2cc(S(=O)(=O)Nc3ccc(OC)cc3)ccc2OC)=C(\C)O)cc1 | inconclusive [inhibitor, single point] | –
Cc1ccc(S(=O)(=O)ON=C2CCN(S(=O)(=O)c3ccccc3)CC2)cc1 | – | inactive: 30.5%
COc1ccc(N2CCN(c3nc(NC(C)(C)C)nc(N4CCCCC4)n3)CC2)cc1 | active: 1.85 µM | –
CCN(C(=O)CSc1cc(C)c2ccccc2n1)C1CCS(=O)(=O)C1 (centres undefined) | – | inactive: -5.68%
COc1ccccc1OCC(O)Cn1c(=N)n(CCN2CCCCC2)c2ccccc21 (centres undefined) | active: 3.29 µM | –
Cc1c(C(=O)N2C[C@@H](C)O[C@@H](C)C2)oc2c(F)cccc12 | inconclusive [inhibitor, single point] | –
COc1ccc(/C=N/Nc2ncc(C(F)(F)F)cc2Cl)cc1OC | – | inactive: 34.2%
O=C(Nc1nnc(-c2cccs2)o1)c1ccc(S(=O)(=O)N2CCOCC2)cc1 | inconclusive [inhibitor, single point] | –
Oc1ccccc1/C=N/Nc1cc(N2CCCC2)nc(N2CCCC2)n1 | active: 2.08 µM | –
O=C(COc1coc(CN2CCN(c3ccc(F)cc3)CC2)cc1=O)NC1CCCC1 | inconclusive [inhibitor, single point] | –
Clc1ccc2ccc3cccnc3c2n1 | inconclusive [inhibitor, single point] | –
COc1ccccc1C(CNc1nc(C(F)(F)F)nc2ccccc12)N(C)C (centres undefined) | inconclusive [inhibitor, single point] | –
COc1ccc(OCCSc2nnnn2C2CCCCC2)cc1 | – | inactive: 13%
COc1ccc(S(=O)(=O)NCCC(=O)NC2CCCCCCC2)cc1 | inconclusive [inhibitor, partial curve] | –
CC(Oc1ccc(Cl)cc1Cl)C(=O)OCC(=O)c1c(N)n(C)c(=O)n(C)c1=O (centres undefined) | inconclusive [inhibitor, single point] | –
Cc1ccc(-c2nc3ccccc3nc2Cl)cc1 | inconclusive [inhibitor, single point] | –

SMILES | Potency | activity change, negative = inhibition
COC(=O)Nc1ccc(SCC(=O)c2ccccc2)cc1 | – | inactive: 31.5%
CN1CC=C(/C=C/c2ccc(-c3ccccc3)cc2)CC1 | inconclusive [inhibitor, partial curve, poor fit] | –
COc1ccc(-c2noc(C3CCCN(C(=O)c4ccccc4OC)C3)n2)cc1 (centres undefined) | – | inactive: -13.3%
CC(C)(C)OC(=O)NC(Cc1ccccc1)C(=O)O (centres undefined) | – | inactive: 1.19%
C/C(=N\Nc1nccnc1Cl)c1ccc(O)c(C)c1 | – | inactive: 70.2%
O=C(CN1C(=O)c2ccccc2S1(=O)=O)N1CCN(Cc2ccc3c(c2)OCO3)CC1 | – | inactive: -7.32%
COc1ccc(C2C(C#N)=C(N)N(c3cccnc3)C3=C2C(=O)CCC3)cc1Cn1cc([N+](=O)[O-])cn1 (centres undefined) | inconclusive [inhibitor, single point] | –
O=C(Nc1cccc2ccccc12)c1nn(C23CC4CC(CC(C4)C2)C3)cc1Br | inconclusive [inhibitor, partial curve, poor fit] | –
Fc1ccc(Nc2nc(-c3ccncc3)nc3ccccc23)cc1F | inconclusive [inhibitor, single point] | –
Cc1ccc(NC(=O)CSc2nnc(-c3cccs3)o2)cc1S(=O)(=O)N(C)C | – | inactive: 59.3%
CCOC(=O)c1[nH]c2ccc(OC)cc2c1NC(=O)C(C)N1CCSCC1 (centres undefined) | inconclusive [inhibitor, single point] | –
CN1CCN(c2ccccc2NC(=O)c2ccc(OCc3ccccc3)cc2)CC1 | active: 7.38 µM | –
CCCCCCCCC(=O)NC(NC(=S)N1CCOCC1)C(Cl)(Cl)Cl (centres undefined) | inconclusive [inhibitor, single point] | –
COc1cc(OC)c(OC)cc1CN1CCN(C(=O)COc2ccc3ccccc3c2)CC1 | inconclusive [inhibitor, single point] | –
O=C(Cn1cnc([N+](=O)[O-])n1)N/N=C/c1cc(Cl)ccc1O | inconclusive [inhibitor, partial curve, poor fit] | –
CC(C)OCCCNC(=O)c1cc(Sc2ccc(F)cc2)nc2ccccc12 | inconclusive [inhibitor, partial curve, poor fit] | –
O=C(CN1C(=O)C2CC=CCC2C1=O)Nc1ccc(S(=O)(=O)N2CCOCC2)cc1 (centres undefined) | inconclusive [inhibitor, partial curve, poor fit] | –
CCN1CCN(C(=O)C2CCCN(S(=O)(=O)c3cccc4nsnc34)C2)CC1 (centres undefined) | – | inactive: -7.4%
Cc1ccc(-n2c(=O)[nH]c3c(C(N)=O)nc(CC(C)C)nc32)cc1 | inconclusive [inhibitor, single point] | –
O=C(Nc1ccccc1)c1ccccc1C(=O)N1CCCCC1 | – | inactive: 7.33%
O=C(CSc1cccc[n+]1[O-])Nc1ccccc1Oc1ccccc1 | inconclusive [inhibitor, single point] | –
COc1ccccc1C(=O)N1CC(=O)Nc2ccc(C)cc2C1c1ccc(F)cc1 (centres undefined) | inconclusive [inhibitor, single point] | –
CCC(=O)Nc1cccc(C2=NOC3(C2)C[C@H](C(N)=O)N(C(=O)c2ccc(Cl)cc2)C3)c1 (some centres undefined) | inconclusive [inhibitor, single point] | –
